Molecules are shown by their SMILES.

The subject of this test is Influenza A, strain PR8. The test can be described thus: microbe, parasite or virus in culture. The conditions noted are these: PR8, MDCK, read-out: Influenza Antiviral Activity by Cytopathic Effect (CPE) in MDCK Cells: EC50.
The term EC50 denotes the concentration needed to bring the measured effect to its halfway point. Take `O=C1c2c(O)c(=O)nc(C3CCCN3C(=O)OCc3ccccc3)n2CCN1CCOc1ccccc1` (centres unmarked) [SRI-0030395, benzyl 2-(9-hydroxy-1,8-dioxo-2-(2-phenoxyethyl)-1,3,4,8-tetrahydro-2H-pyrazino[1,2-c]pyrimidin-6-yl)pyrrolidine-1-carboxylate]: the EC50 is more than 50 µM.
Regarding `O=C1c2c(O)c(=O)nc(C3CCCN3C(=O)c3c(Cl)cccc3Cl)n2CCN1CCOc1ccccc1` (centres unmarked) [SRI-0030396, 6-(1-(2,6-dichlorobenzoyl)pyrrolidin-2-yl)-9-hydroxy-2-(2-phenoxyethyl)-3,4-dihydro-2H-pyrazino[1,2-c]pyrimidine-1,8-dione], the EC50 is more than 50 µM.
Then `O=C1c2c(O)c(=O)nc([C@@H]3CCCN3C(=O)c3c(Cl)cccc3Cl)n2CCN1CCS(=O)(=O)c1ccccn1` [SRI-0031013, (S)-6-(1-(2,6-dichlorobenzoyl)pyrrolidin-2-yl)-9-hydroxy-2-(2-(pyridin-2-ylsulfonyl)ethyl)-3,4-dihydro-2H-pyrazino[1,2-c]pyrimidine-1,8-dione], with more than 50 µM; and `N#Cc1ccc(S(=O)(=O)CCN2CCn3c([C@@H]4CCCN4C(=O)CSc4ccccc4Cl)nc(=O)c(O)c3C2=O)cc1` [SRI-0031014, (S)-4-((2-(6-(1-(2-((2-chlorophenyl)thio)acetyl)pyrrolidin-2-yl)-9-hydroxy-1,8-dioxo-1,3,4,8-tetrahydro-2H-pyrazino[1,2-c]pyrimidin-2-yl)ethyl)sulfonyl)benzonitrile], with more than 50 µM; and `N#Cc1ccc(S(=O)(=O)CCN2CCn3c([C@@H]4CCCN4C(=O)c4c(Cl)cccc4Cl)nc(=O)c(O)c3C2=O)cc1` [SRI-0031015, (S)-4-((2-(6-(1-(2,6-dichlorobenzoyl)pyrrolidin-2-yl)-9-hydroxy-1,8-dioxo-1,3,4,8-tetrahydro-2H-pyrazino[1,2-c]pyrimidin-2-yl)ethyl)sulfonyl)benzonitrile], with more than 40 µM.
Then `COc1ccc(S(=O)(=O)CCN2CCn3c([C@@H]4CCCN4C(=O)c4c(Cl)cccc4Cl)nc(=O)c(O)c3C2=O)cc1` [SRI-0031016, (S)-6-(1-(2,6-dichlorobenzoyl)pyrrolidin-2-yl)-9-hydroxy-2-(2-((4-methoxyphenyl)sulfonyl)ethyl)-3,4-dihydro-2H-pyrazino[1,2-c]pyrimidine-1,8-dione], with more than 40 µM; and `COc1ccc(S(=O)(=O)CCN2CCn3c([C@@H]4CCCN4C(=O)CSc4ccccc4Cl)nc(=O)c(O)c3C2=O)cc1` [SRI-0031020, (S)-6-(1-(2-((2-chlorophenyl)thio)acetyl)pyrrolidin-2-yl)-9-hydroxy-2-(2-((4-methoxyphenyl)sulfonyl)ethyl)-3,4-dihydro-2H-pyrazino[1,2-c]pyrimidine-1,8-dione], with 39.3 µM; and `O=C1c2c(O)c(=O)nc([C@@H]3CCCN3C(=O)CSc3ccccc3Cl)n2CCN1CCS(=O)(=O)c1cccnc1` [SRI-0031021, (S)-6-(1-(2-((2-chlorophenyl)thio)acetyl)pyrrolidin-2-yl)-9-hydroxy-2-(2-(pyridin-3-ylsulfonyl)ethyl)-3,4-dihydro-2H-pyrazino[1,2-c]pyrimidine-1,8-dione], with more than 40 µM.
Then `N#Cc1cccc(S(=O)(=O)CCN2CCn3c([C@@H]4CCCN4C(=O)CSc4ccccc4Cl)nc(=O)c(O)c3C2=O)c1` [SRI-0031022, (S)-3-((2-(6-(1-(2-((2-chlorophenyl)thio)acetyl)pyrrolidin-2-yl)-9-hydroxy-1,8-dioxo-1,3,4,8-tetrahydro-2H-pyrazino[1,2-c]pyrimidin-2-yl)ethyl)sulfonyl)benzonitrile], with more than 40 µM; and `O=C1c2c(O)c(=O)nc([C@@H]3CCCN3C(=O)CSc3ccccc3Cl)n2CCN1CCS(=O)(=O)c1cccs1` [SRI-0031024, (S)-6-(1-(2-((2-chlorophenyl)thio)acetyl)pyrrolidin-2-yl)-9-hydroxy-2-(2-(thiophen-2-ylsulfonyl)ethyl)-3,4-dihydro-2H-pyrazino[1,2-c]pyrimidine-1,8-dione], with more than 40 µM.
Consider `O=C1c2c(O)c(=O)nc([C@@H]3CCCN3C(=O)CSc3ccccc3Cl)n2CCN1CCS(=O)(=O)c1ccncc1` [SRI-0031029, (S)-6-(1-(2-((2-chlorophenyl)thio)acetyl)pyrrolidin-2-yl)-9-hydroxy-2-(2-(pyridin-4-ylsulfonyl)ethyl)-3,4-dihydro-2H-pyrazino[1,2-c]pyrimidine-1,8-dione], for which the EC50 was more than 40 µM.

Source of the values: US20240228495A1 (priority 2020, published 2024).
